Measured values taken from a collection of fitness landscapes (doi:10.1126/science.1257360).
Some of the results follow.

B1: PhoQ; a variant is named by its letters at X, in order, P23837 (parent)
chain: MKKLLRLFFPLSLRVRFLLATAAVVLVLSLAYGMVALIGYSVSFDKTTFRLLRGESNLFYTLAKWENNKLHVELPENIDKQSPTMTLIYDENGQLLWAQRDVPWLMKMIQPDWLKSNGFHEIEADVNDTSLLLSGDHSIQQQLQEVREDDDDAEMTHSVAVNVYPATSRMPKLTIVVVDTIPVELKSSYMVWSWFIYVLSANLLLVIPLLWVAAWWSLRPIEALAKEVRELEEHNRELLNPATTRELTSLVRNLNRLLKSERERYDKYRTTLTDLTHSLKTPLXXLQXXLRSLRSEKMSVSDAEPVMLEQISRISQQIGYYLHRASMRGGTLLSRELHPVAPLLDNLTSALNKVYQRKGVNISLDISPEISFVGEQNDFVEVMGNVLDNACKYCLEFVEISARQTDEHLYIVVEDDGPGIPLSKREVIFDRGQRVDTLRPGQGVGLAVAREITEQYEGKIVAGESMLGGARMEVIFGRQHSAPKDE

Variants of: B1
Assay: enrichment ratio after two sorts for PhoP signalling (ratio (wild type AVST 3.29)); higher = more functional
Settings: with PhoP (E. coli)

Row | Variant | enrichment ratio
1 | FKHC | ≤ 0.25
2 | DQHY | ≤ 0.25
3 | GGEL | ≤ 0.25
4 | ENIN | ≤ 0.25
5 | ELIS | ≤ 0.25
6 | IVAL | ≤ 0.25
7 | GPNK | ≤ 0.25
8 | YHHA | ≤ 0.25
9 | TTYE | 0.712
10 | ELHW | ≤ 0.25
11 | VIFQ | ≤ 0.25
12 | PVFA | ≤ 0.25
13 | PQAW | ≤ 0.25
14 | PGYK | ≤ 0.25
15 | HECS | 2.84
16 | MENG | ≤ 0.25
17 | PHGA | ≤ 0.25
18 | KVYC | ≤ 0.25
19 | PSSQ | ≤ 0.25
20 | YKIC | ≤ 0.25
21 | PQTC | ≤ 0.25
22 | YWYH | ≤ 0.25
23 | MFFF | ≤ 0.25
24 | AYKW | ≤ 0.25

Row | Variant | enrichment ratio
25 | IICE | ≤ 0.25
26 | VGFA | ≤ 0.25
27 | RVQI | ≤ 0.25
28 | RASM | ≤ 0.25
29 | QLAH | ≤ 0.25
30 | IMFD | ≤ 0.25
31 | WHTM | ≤ 0.25
32 | VFNY | ≤ 0.25
33 | IAKE | ≤ 0.25
34 | QWPR | ≤ 0.25
35 | NHWD | ≤ 0.25
36 | LIRP | ≤ 0.25
37 | YCVY | ≤ 0.25
38 | RMWF | ≤ 0.25
39 | FQDQ | ≤ 0.25
40 | LPYF | ≤ 0.25
41 | HSHI | ≤ 0.25
42 | QGTV | 0.483
43 | GTFA | ≤ 0.25
44 | FNDH | ≤ 0.25
45 | FNTC | ≤ 0.25
46 | GHHR | ≤ 0.25
47 | MGLK | ≤ 0.25
48 | QDHF | ≤ 0.25

Row | Variant | enrichment ratio
49 | LIKY | ≤ 0.25
50 | RSDH | ≤ 0.25
51 | NQSR | ≤ 0.25
52 | AFMD | ≤ 0.25
53 | YNMN | ≤ 0.25
54 | YFGF | ≤ 0.25
55 | RETC | ≤ 0.25
56 | MQVK | ≤ 0.25
57 | NNTP | ≤ 0.25
58 | YMMF | ≤ 0.25
59 | YLHT | ≤ 0.25
60 | YHYS | ≤ 0.25
61 | HMTR | ≤ 0.25
62 | FWKT | ≤ 0.25
63 | NIER | ≤ 0.25
64 | KHNM | ≤ 0.25
65 | FEPP | ≤ 0.25
66 | VLAY | ≤ 0.25
67 | QCAN | ≤ 0.25
68 | TTSA | 11.5
69 | TYWD | ≤ 0.25
70 | LDKN | ≤ 0.25
71 | WPKD | ≤ 0.25
72 | PSPC | ≤ 0.25

Row | Variant | enrichment ratio
73 | QRHQ | ≤ 0.25
74 | GDTK | ≤ 0.25
75 | QSYP | ≤ 0.25
76 | GKTQ | ≤ 0.25
77 | EDDP | ≤ 0.25
78 | VQDS | ≤ 0.25
79 | LRRC | ≤ 0.25
80 | IDTF | ≤ 0.25
81 | DPKS | ≤ 0.25
82 | IYWF | ≤ 0.25
83 | MESE | ≤ 0.25
84 | IEHK | ≤ 0.25
85 | IQHQ | ≤ 0.25
86 | MLNY | ≤ 0.25
87 | QCKR | ≤ 0.25
88 | HNAW | ≤ 0.25
89 | MMFY | ≤ 0.25
90 | KFVI | ≤ 0.25
91 | DSIS | ≤ 0.25
92 | CLAY | ≤ 0.25
93 | LDPY | ≤ 0.25
94 | KGIV | ≤ 0.25
95 | LRAF | ≤ 0.25
96 | GYKI | ≤ 0.25

Row | Variant | enrichment ratio
97 | EANA | ≤ 0.25
98 | KAGY | ≤ 0.25
99 | IQWM | ≤ 0.25
100 | IGMK | ≤ 0.25
101 | KVFR | ≤ 0.25
102 | AKCR | ≤ 0.25
103 | KGGT | ≤ 0.25
104 | TYPK | ≤ 0.25
105 | NNQV | ≤ 0.25
106 | ARSL | 0.309
107 | MENP | ≤ 0.25
108 | MYPT | ≤ 0.25
109 | ASDI | ≤ 0.25
110 | NSPK | ≤ 0.25
111 | NCEQ | ≤ 0.25
112 | TCLE | ≤ 0.25
113 | ARST | ≤ 0.25
114 | WDDG | ≤ 0.25
115 | SSPF | ≤ 0.25
116 | SSGI | 8.57
117 | AIQI | 0.475
118 | HSFW | ≤ 0.25
119 | MMQF | ≤ 0.25
120 | QLAC | ≤ 0.25

Row | Variant | enrichment ratio
121 | RLII | ≤ 0.25
122 | DGTY | ≤ 0.25
123 | PYNP | ≤ 0.25
124 | IMQT | ≤ 0.25
125 | WALV | 3.55
126 | AQCG | 4.1
127 | PRGW | ≤ 0.25
128 | DCDF | ≤ 0.25
129 | IASW | ≤ 0.25
130 | RGPS | ≤ 0.25
131 | IQDM | ≤ 0.25
132 | LNVT | ≤ 0.25
133 | PNGW | ≤ 0.25
134 | HYKM | ≤ 0.25
135 | LREH | ≤ 0.25
136 | WSTF | ≤ 0.25
137 | DAST | ≤ 0.25
138 | IDKW | ≤ 0.25
139 | CHAG | ≤ 0.25
140 | EGQM | ≤ 0.25
141 | TTWG | 12.2
142 | DCMS | ≤ 0.25
143 | MQMR | ≤ 0.25
144 | DYAE | ≤ 0.25

Row | Variant | enrichment ratio
145 | DRNW | ≤ 0.25
146 | KFMK | ≤ 0.25
147 | KEMY | ≤ 0.25
148 | DDWI | ≤ 0.25
149 | KSLP | ≤ 0.25
150 | QCGC | ≤ 0.25
151 | IHLV | ≤ 0.25
152 | NLLH | ≤ 0.25
153 | PNKL | ≤ 0.25
154 | TMSI | 14.2
155 | RGNK | ≤ 0.25
156 | FHPY | ≤ 0.25
157 | ASDR | ≤ 0.25
158 | NEMD | ≤ 0.25
159 | MTSF | 5.24
160 | NACG | ≤ 0.25
161 | WNFN | ≤ 0.25
162 | GWPV | ≤ 0.25
163 | EKRS | ≤ 0.25
164 | QSQE | ≤ 0.25
165 | ANSF | 5.47
166 | DLSE | ≤ 0.25
167 | EHFE | ≤ 0.25
168 | TGHH | 1.85

Row | Variant | enrichment ratio
169 | YNFM | ≤ 0.25
170 | MKWY | ≤ 0.25
171 | PDRG | ≤ 0.25
172 | FIVG | ≤ 0.25
173 | EHLW | ≤ 0.25
174 | EVWF | ≤ 0.25
175 | ARLK | ≤ 0.25
176 | ILSP | ≤ 0.25
177 | ERYF | ≤ 0.25
178 | QYNP | ≤ 0.25
179 | KGWL | ≤ 0.25
180 | SLTD | ≤ 0.25
181 | FIRC | ≤ 0.25
182 | FQND | ≤ 0.25
183 | YYDY | ≤ 0.25
184 | LNFV | ≤ 0.25
185 | PHKS | ≤ 0.25
186 | HYIV | ≤ 0.25
187 | GDHV | ≤ 0.25
188 | HTSC | ≤ 0.25
189 | KIHE | ≤ 0.25
190 | IMCV | ≤ 0.25
191 | LICA | ≤ 0.25
192 | NDNF | ≤ 0.25

Row | Variant | enrichment ratio
193 | DFAY | ≤ 0.25
194 | DPYG | ≤ 0.25
195 | IWKT | ≤ 0.25
196 | MGME | 13
197 | RHKK | ≤ 0.25
198 | RNRD | ≤ 0.25
199 | WILT | ≤ 0.25
200 | QVTY | ≤ 0.25
201 | WQLP | ≤ 0.25
202 | SGRT | ≤ 0.25
203 | IANV | ≤ 0.25
204 | VTGL | ≤ 0.25
205 | YYHT | ≤ 0.25
206 | WCCP | ≤ 0.25
207 | MKYH | ≤ 0.25
208 | VGNC | ≤ 0.25
209 | PDYT | ≤ 0.25
210 | HRRT | ≤ 0.25
211 | SIHI | ≤ 0.25
212 | AHMR | ≤ 0.25
213 | MDTD | ≤ 0.25
214 | LLSY | ≤ 0.25
215 | YMMI | ≤ 0.25
216 | WHPK | ≤ 0.25

Row | Variant | enrichment ratio
217 | VANV | ≤ 0.25
218 | WYVG | ≤ 0.25
219 | LCAL | ≤ 0.25
220 | SRPN | ≤ 0.25
221 | SWCC | ≤ 0.25
222 | RWHL | ≤ 0.25
223 | TLLR | ≤ 0.25
224 | RVKT | ≤ 0.25
225 | VANW | ≤ 0.25
226 | DHVS | ≤ 0.25
227 | MNFI | 2.14
228 | VETI | ≤ 0.25
229 | RAQQ | ≤ 0.25
230 | GLNN | ≤ 0.25
231 | MTYF | 7.02
232 | NITR | ≤ 0.25
233 | HWNA | ≤ 0.25
234 | YAWM | ≤ 0.25
235 | GKMM | ≤ 0.25
236 | NSQF | ≤ 0.25
237 | FYYN | ≤ 0.25
238 | ADPQ | ≤ 0.25
239 | YQHF | ≤ 0.25
240 | YGFA | ≤ 0.25

Row | Variant | enrichment ratio
241 | HPIC | ≤ 0.25
242 | ASSE | 10.8
243 | TWNR | ≤ 0.25
244 | FELS | 8.05
245 | TLPM | ≤ 0.25
246 | EVTN | ≤ 0.25
247 | IFDL | ≤ 0.25
248 | RPTV | ≤ 0.25
249 | PTAL | ≤ 0.25
250 | FECD | ≤ 0.25
251 | MNKH | ≤ 0.25
252 | GMPT | ≤ 0.25
253 | PTGS | ≤ 0.25
254 | HSCL | 7.06
255 | AFEL | ≤ 0.25
256 | EKAY | ≤ 0.25
257 | RYTK | ≤ 0.25
258 | KAQM | ≤ 0.25
259 | LIIR | ≤ 0.25
260 | VNDT | ≤ 0.25
261 | DDKV | ≤ 0.25
262 | SDCL | 1.46
263 | TFGV | ≤ 0.25
264 | TTQQ | 21.5

Row | Variant | enrichment ratio
265 | QLPG | ≤ 0.25
266 | SREV | ≤ 0.25
267 | ITPL | ≤ 0.25
268 | SWHK | ≤ 0.25
269 | SHKL | ≤ 0.25
270 | FSFA | ≤ 0.25
271 | WRNN | ≤ 0.25
272 | GPPD | ≤ 0.25
273 | EFWI | ≤ 0.25
274 | GSSL | 8.1
275 | LGRA | ≤ 0.25
276 | ECPC | ≤ 0.25
277 | GHRF | ≤ 0.25
278 | NLED | ≤ 0.25
279 | AQPE | ≤ 0.25
280 | KMSE | ≤ 0.25
281 | HDCY | ≤ 0.25
282 | AFYD | ≤ 0.25
283 | IWHW | ≤ 0.25
284 | DARH | ≤ 0.25
285 | MLVD | ≤ 0.25
286 | FGIA | ≤ 0.25
287 | ERLR | ≤ 0.25
288 | AEHI | 1.21

Row | Variant | enrichment ratio
289 | IYYG | ≤ 0.25
290 | TTEL | 16.6
291 | VYCY | ≤ 0.25
292 | ELVN | ≤ 0.25
293 | FLMH | ≤ 0.25
294 | VQDR | ≤ 0.25
295 | MRMM | ≤ 0.25
296 | QRTN | ≤ 0.25
297 | ENNI | ≤ 0.25
298 | RTHR | 0.299
299 | ATPL | 5.31
300 | VPFA | ≤ 0.25
301 | TFGM | 1.64
302 | EHIH | ≤ 0.25
303 | SEGL | 3.21
304 | TTCF | 17.7
305 | EPLS | ≤ 0.25
306 | IEHI | ≤ 0.25
